Results on 64 molecules are retold here after the supplement of paper PMC2702839.

Counter-ions that a name gives are not always drawn. The list shows a part of the results.

In this assay the test system is Schistosoma mansoni schistosomula. As to the kind of experiment: phenotypic hit in primary schistosomula screen (any phenotype vs DMSO control) (binary (1 = hit, 0 = no phenotype)); higher = active (phenotype induced). The note with it: 1 µM; time (d): 7.
`COc1ccc2ccc(=O)oc2c1CC=C(C)C` [osthol]: the phenotypic hit was inactive: 0.

As to `CC(=O)O[C@@H]1CC2C(C)(C)[C@H](O)C=C[C@]2(C)C2CC[C@@]3(C)[C@H](c4ccoc4)OC(=O)C4OC43[C@@]21C` (some centres undefined) [gedunol], the phenotypic hit was inactive: 0.

`CC(C)=CCC/C(C)=C/C=C/C(C)=C/C=C/C(C)=C/C=C/C=C(C)/C=C/C=C(C)/C=C/C=C(\C)CCC=C(C)C` [lycopene]: the phenotypic hit is inactive: 0.

Regarding `CC1=C(/C=C/C(C)=C/C=C/C(C)=C/C(=O)O)C(C)(C)CCC1` [tretinon], the phenotypic hit is inactive: 0.

Turning to `NC[C@@H]1CC[C@@H](N)[C@@H](O[C@H]2[C@H](O)[C@@H](O[C@H]3O[C@H](CO)[C@@H](O)[C@H](N)[C@H]3O)[C@H](N)C[C@@H]2N)O1` [dibekacin], the phenotypic hit was active: 1.

Turning to `CCC1(c2ccccc2)NC(=O)N(C)C1=O` (centres undefined) [mephentoin], the phenotypic hit was inactive: 0.

Consider `N[C@@H](CCC(=O)N[C@@H](CS)C(=O)NCC(=O)O)C(=O)O` [glutathione], for which the phenotypic hit was inactive: 0.

Take `CC1=C(C(=O)O)N2C(=O)[C@@H](NC(=O)[C@H](N)C3=CCC=CC3)[C@H]2SC1` [cephradine]: the phenotypic hit was inactive: 0.

Take `COc1cc2c3cc1Oc1cc(ccc1O)C[C@@H]1c4c(cc(OC)c(O)c4Oc4ccc(cc4)C[C@@H]3N(C)CC2)CC[N+]1(C)C` [tubocurarine chloride]: the phenotypic hit is inactive: 0.

On to `CC(=O)O[C@@H]1c2c(ccc3ccc(=O)oc23)OC(C)(C)[C@@H]1OC(=O)CC(C)C` [dihydrosamidin], for which the phenotypic hit is inactive: 0.

Turning to `C[C@]12CC[C@@H]3c4ccc(O)cc4CC[C@H]3[C@@H]1CC[C@@H]2O` [estradiol], the phenotypic hit is inactive: 0.

Regarding `CCN(CC)C(=O)c1cccc(C)c1` [deet], the phenotypic hit was inactive: 0.

As for `CCCN(CCC)S(=O)(=O)c1ccc(C(=O)O)cc1` [probenecid], the phenotypic hit was inactive: 0.

Regarding `C=C1CCC(OC(C)=O)/C(C)=C/C[C@@H]2[C@@H]1CC2(C)C` (some centres undefined) [caryophyllenyl acetate], the phenotypic hit was inactive: 0.

With `COc1ccc(-c2coc3c(O)c(OC)ccc3c2=O)cc1` [retusin 7-methyl ether], the phenotypic hit was inactive: 0.

With `C/C1=C\CC(C)(C)/C=C/CC2(C)OC2CC1` (centres undefined) [epoxy (1,11)humulene], the phenotypic hit was inactive: 0.

Regarding `NCCCCCCNS(=O)(=O)c1cccc2c(Cl)cccc12` [W-7 hydrochloride], the phenotypic hit was inactive: 0.

Regarding `CN(C)CCOC(c1ccccc1)c1ccccc1` [Diphenhydramine hydrochloride], the phenotypic hit is inactive: 0.

In the case of `CC(=O)[C@H]1CC[C@H]2[C@@H]3CCC4=CC(=O)CC[C@]4(C)[C@H]3CC[C@]12C` [progesterone], the phenotypic hit is inactive: 0.

In the case of `CC(=O)O[C@H]1C[C@@H](OC(C)=O)C(C)(C)[C@@H]2C[C@@H](OC(C)=O)[C@]3(C)[C@H](CC[C@@]4(C)[C@H](c5ccoc5)OC(=O)[C@H]5O[C@@]534)[C@@]12C` [khivorin], the phenotypic hit is inactive: 0.

In the case of `CN(C)CC/C=C1/c2ccccc2Sc2ccc(Cl)cc21` [Chlorprothixene hydrochloride], the phenotypic hit is active: 1.

On to `NC(Cc1cc(I)c(Oc2cc(I)c(O)c(I)c2)c(I)c1)C(=O)O` (centres undefined) [thyroxine], for which the phenotypic hit is inactive: 0.

With `Cc1cc(=O)oc2cc(O)c(O)cc12` [4-methylesculetin], the phenotypic hit was inactive: 0.

Consider `COc1cc2c(cc1O)C(Cc1ccc(O)cc1)N(C)CC2` (centres undefined) [methyl coclaurine], for which the phenotypic hit was inactive: 0.

For `COc1cc(OC)cc(OC)c1` [1,3,5-trimethoxybenzene], the phenotypic hit is inactive: 0.

Regarding `CNCc1ccccc1` [n-methylbenzylamine hydrochloride], the phenotypic hit was inactive: 0.

For the molecule `COc1cc(OC)c2c(=O)c(O)c(-c3ccc(OC)c(OC)c3)oc2c1` [quercetin tetramethyl (5,7,3',4') ether], the phenotypic hit was inactive: 0.

For `O=C(O)CCCCCCCCCCCC[C@@H]1C=CCC1` [chaulmoogric acid], the phenotypic hit is inactive: 0.

`C=CC1=C(C)c2cc3[nH]c(cc4nc(cc5[nH]c(cc1n2)c(C)c5CCC(=O)O)C(CCC(=O)O)=C4C)c(C)c3C=C` [protoporphyrin ix]: the phenotypic hit was inactive: 0.

Consider `CN(C)CCN(Cc1ccccc1)c1ccccn1` [Tripelennamine hydrochloride], for which the phenotypic hit is inactive: 0.

For the molecule `Clc1ccc(CSC(Cn2ccnc2)c2ccc(Cl)cc2Cl)cc1` (centres undefined) [sulconazole nitrate], the phenotypic hit is inactive: 0.

Take `Nc1ncnc2c1ncn2[C@@H]1O[C@H](CO)[C@@H](O)[C@H]1O` [adenosine]: the phenotypic hit is inactive: 0.

For `COc1ccc2c(c1)OCC(Cc1ccc(O)c(OC)c1)C2=O` (centres undefined) [deoxysappanone b 7,3'-dimethyl ether], the phenotypic hit is inactive: 0.

With `C[n+]1cc2c3c(ccc2c2ccc4cc5c(cc4c21)OCO5)OCO3` [Sanguinarine chloride], the phenotypic hit was active: 1.

With `CN1CCc2c(c3ccccc3n2Cc2ccccc2)C1` [mebhydrolin naphthalenesulfonate], the phenotypic hit is inactive: 0.

In the case of `Fc1ccc(C(c2ccc(F)cc2)N2CCN(C/C=C/c3ccccc3)CC2)cc1` [Flunarizine dihydrochloride], the phenotypic hit was inactive: 0.

With `CCCCC(=O)O[C@H]1CC[C@H]2[C@@H]3CCc4cc(O)ccc4[C@H]3CC[C@]12C` [estradiol valerate], the phenotypic hit is inactive: 0.

For `COc1ccc(/C=C/C(=O)O)cc1OC` [dimethylcaffeic acid], the phenotypic hit was active: 1.

In the case of `N=C(N)c1ccc(OCCCCCOc2ccc(C(=N)N)cc2)cc1` [Pentamidine isethionate], the phenotypic hit was inactive: 0.

For `O=C(OC[C@H]1O[C@@H](OC(=O)c2cc(O)c(O)c(OC(=O)c3cc(O)c(O)c(O)c3)c2)[C@H](OC(=O)c2cc(O)c(O)c(OC(=O)c3cc(O)c(O)c(O)c3)c2)[C@@H](OC(=O)c2cc(O)c(O)c(OC(=O)c3cc(O)c(O)c(O)c3)c2)[C@@H]1OC(=O)c1cc(O)c(O)c(OC(=O)c2cc(O)c(O)c(O)c2)c1)c1cc(O)c(O)c(OC(=O)c2cc(O)c(O)c(O)c2)c1` [tannic acid], the phenotypic hit was inactive: 0.

Regarding `Cc1cc(O)c(C)c(O)c1C(=O)O` [3-methylorsellinic acid], the phenotypic hit is inactive: 0.

Consider `CC1(C)S[C@@H]2[C@H](NC(=O)[C@H](N)c3ccc(O)cc3)C(=O)N2[C@H]1C(=O)O` [amoxicillin], for which the phenotypic hit was inactive: 0.

In the case of `COc1cc(-c2coc3cc(OCc4ccccc4)c(OC)c(O)c3c2=O)cc(OCc2ccccc2)c1OC` [irigenin, dibenzyl ether], the phenotypic hit is inactive: 0.

For the molecule `Cc1cccc(C(=O)O)c1O` [hydroxytoluic acid], the phenotypic hit is inactive: 0.

Turning to `CN[C@@H]1[C@H](O[C@H]2[C@H](O[C@H]3[C@H](O)[C@@H](O)[C@H](N=C(N)N)[C@@H](O)[C@@H]3N=C(N)N)O[C@@H](C)[C@]2(O)C=O)O[C@@H](CO)[C@H](O)[C@H]1O` [streptomycin sulfate], the phenotypic hit was inactive: 0.

With `CC1(C)C(=O)C=C[C@]2(C)[C@H]3CC[C@@]4(C)[C@H](c5ccoc5)OC(=O)[C@H]5O[C@]54[C@]3(C)C(=O)C[C@@H]12` [deacetoxy-7-oxogedunin], the phenotypic hit was inactive: 0.

For the molecule `OC1=Cc2c(O)cc(O)cc2OC1(O)c1ccc(O)c(O)c1` (centres undefined) [2,3,5,7,3',4'-pentahydroxyflavan], the phenotypic hit was inactive: 0.

Consider `C[C@]12CCC(=O)C=C1CC[C@@H]1[C@@H]2[C@@H](O)C[C@@]2(C)[C@H]1CC[C@]2(O)C(=O)CO` [hydrocortisone], for which the phenotypic hit is inactive: 0.

`Oc1ncnc2[nH]ncc12` [Allopurinol]: the phenotypic hit was inactive: 0.

Regarding `COC(=O)CC1C(C)(C)C(=O)C2CC3(O)C4=CC(=O)OC(c5ccoc5)C4(C)CCC3C1(C)C2=O` (stereo not drawn) [8beta-hydroxycarapin], the phenotypic hit was inactive: 0.

With `CN(N=O)C(=O)N[C@H]1C(O)O[C@H](CO)[C@@H](O)[C@@H]1O` (mixture of isomers) [streptozosin], the phenotypic hit is inactive: 0.

`CCCc1cc(=O)[nH]c(=S)[nH]1` [propylthiouracil]: the phenotypic hit is inactive: 0.

Consider `Cc1onc(-c2ccccc2)c1-c1ccc(S(N)(=O)=O)cc1` [valdecoxib], for which the phenotypic hit is inactive: 0.

For `O=C(O[C@@H]1Cc2c(O)cc(O)cc2O[C@@H]1c1cc(O)c(O)c(O)c1-c1c([C@H]2Oc3cc(O)cc(O)c3C[C@H]2O)cc(O)c(O)c1O)c1cc(O)c(O)c(O)c1` [2',2'-bisepigallocatechin monogallate], the phenotypic hit was inactive: 0.

Consider `C[N+]1(CCCCC[N+]2(C)CCCC2)CCCC1` [pentolinium tartrate], for which the phenotypic hit is inactive: 0.

With `Cc1cc(C(C)(C)C)c(O)c(C)c1CC1=NCCN1` [Oxymetazoline hydrochloride], the phenotypic hit is inactive: 0.

As to `CC(=O)OC1CCC2(C)C(CCC3C2CCC2(C)C3CC3OC4(CCC(C)CO4)C(C)C32)C1` (centres undefined) [neotigogenin acetate], the phenotypic hit was inactive: 0.

With `CN(C)CCCN1c2ccccc2Sc2ccccc21` [promazine hydrochloride], the phenotypic hit is active: 1.

In the case of `C=CC(C1=CC(=O)C=CC1=O)c1ccccc1` (centres undefined) [dalbergione], the phenotypic hit is inactive: 0.

Take `C[N+]1(C)C[C@H](O)C[C@H]1C(=O)[O-]` [betonicine]: the phenotypic hit was inactive: 0.

On to `COc1ccc([C@@H]2CC(=O)c3c(O)cc(O[C@@H]4O[C@H](CO[C@@H]5O[C@@H](C)[C@H](O)[C@@H](O)[C@H]5O)[C@@H](O)[C@H](O)[C@H]4O)cc3O2)cc1O` [hesperidin], for which the phenotypic hit was inactive: 0.

For the molecule `COc1c2ccoc2c(OC)c2oc(=O)ccc12` [isopimpinellin], the phenotypic hit is inactive: 0.

As for `COc1ccc2c(c1)OC1(O)COc3cc(OC)c(OC)cc3C1=C2` (centres undefined) [12a-hydroxy-5-deoxydehydromunduserone], the phenotypic hit was inactive: 0.

For `C[N+]1(C)[C@@H]2CC[C@H]1C[C@@H](OC(=O)C(O)c1ccccc1)C2` (some centres undefined) [homatropine methylbromide], the phenotypic hit is inactive: 0.
